The RNAGym collection of RNA variant scans (doi:10.1101/gad.245936.114)
Variants at the floor of the assay are shown more often than the library holds them.

B1: tRNA (parent)
chain: CUCUCGGUAGCCAAGUUGGUUUAAGGCGCAAGACUUUAAUUUAUCACUACGAAAUCUUGAGAUCGGGCGUUCGACUCGCCCCCGGGAGAUUUUUUCCUCGAGCAA

Variants of: B1
Assay: nonsense suppression (GFP-seq) (ratio to wild type); higher = more function; SUP4oc tRNA, yeast GFP reporter sort-seq
In short: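 To measure nonsense suppression, tRNA variants from a library carrying ~3% random mutations were integrated into the yeast genome alongside RFP and a GFP ochre reporter under galactose control. Growth took place in raffinose/galactose medium supplemented with 80 mg/L adenine, followed by sorting into GFP/RFP bins and Illumina sequencing of each bin (phred ≥30). For each variant with ≥100 reads and ≥30 cells, the bin median GFP/RFP values were weighted by its estimated cell share per bin and referenced to the unmutated parent tRNA.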

U4G C11A and U4G C11G cannot be ordered by nonsense suppression: ≤ 0.026 for the first, ≤ 0.026 for the second.

U4G C11G C27G and U4G C11U C75U cannot be ordered by nonsense suppression: ≤ 0.026 for the first, ≤ 0.026 for the second.

U4G C11U U58A G69C and U4G C12A G69U C81A cannot be ordered by nonsense suppression: ≤ 0.026 for the first, ≤ 0.026 for the second.

First: U4G C12A U58A
Second: U4G C12G
The nonsense suppression of the first is lower: ≤ 0.026 for the first, 0.0311 for the second.

U4G C12G G15U A24G G86C and U4G C12G G85C A89G cannot be ordered by nonsense suppression: ≤ 0.026 for the first, ≤ 0.026 for the second.

U4G C12U G15U G25U A62G and U4G C27A C29A C79A C80G G85A cannot be ordered by nonsense suppression: ≤ 0.026 for the first, ≤ 0.026 for the second.

U4G C27U G88U and U4G C34A G67A C75A cannot be ordered by nonsense suppression: ≤ 0.026 for the first, ≤ 0.026 for the second.

Compared with U4G C56U, U4G C68G is higher in nonsense suppression: 0.0355 for the first, 0.0622 for the second.

Compared with U4G C75U, U4G C77A is lower in nonsense suppression: 1.1 for the first, 0.0479 for the second.

Compared with U4G C77U, U4G G6U U8C C12G C29A C56G is lower in nonsense suppression: 0.0723 for the first, ≤ 0.026 for the second.

U4G G6U U21C U55C C79G and U4G G7C G88A cannot be ordered by nonsense suppression: ≤ 0.026 for the first, ≤ 0.026 for the second.

U4G G7U and U4G G7U C34U cannot be ordered by nonsense suppression: ≤ 0.026 for the first, ≤ 0.026 for the second.

U4G G7U C80G and U4G G15C G85A cannot be ordered by nonsense suppression: ≤ 0.026 for the first, ≤ 0.026 for the second.

Going from U4G G18C A24G G61C C81A to U4G G18C C77A, the nonsense suppression falls from 0.057 to ≤ 0.026.

U4G G18C G28A A74G and U4G G18U G66U C72G cannot be ordered by nonsense suppression: ≤ 0.026 for the first, ≤ 0.026 for the second.

U4G G19A A30C G88A and U4G G19C A23C cannot be ordered by nonsense suppression: ≤ 0.026 for the first, ≤ 0.026 for the second.

U4G G19C U22G G66C A89C and U4G G19U G66A cannot be ordered by nonsense suppression: ≤ 0.026 for the first, ≤ 0.026 for the second.

U4G G19U G86C and U4G G25C U58A cannot be ordered by nonsense suppression: ≤ 0.026 for the first, ≤ 0.026 for the second.

U4G G25U and U4G G25U U70C U76C cannot be ordered by nonsense suppression: ≤ 0.026 for the first, ≤ 0.026 for the second.

U4G G28A G65A U71G A87C and U4G G32A A33G cannot be ordered by nonsense suppression: ≤ 0.026 for the first, ≤ 0.026 for the second.

U4G G59C U76C and U4G G59U cannot be ordered by nonsense suppression: ≤ 0.026 for the first, ≤ 0.026 for the second.

Going from U4G G61A to U4G G61A C75A, the nonsense suppression rises from 0.189 to 0.558.

U4G G61C C79U C82G and U4G G61U U63C cannot be ordered by nonsense suppression: ≤ 0.026 for the first, ≤ 0.026 for the second.

U4G G66C and U4G G67A C68A cannot be ordered by nonsense suppression: ≤ 0.026 for the first, ≤ 0.026 for the second.

U4G G86C and U4G G86U cannot be ordered by nonsense suppression: ≤ 0.026 for the first, ≤ 0.026 for the second.

U4G U8A G66C and U4G U8A G69U U76G cannot be ordered by nonsense suppression: ≤ 0.026 for the first, ≤ 0.026 for the second.

U4G U8G A9G G25U G85U G86U A87C and U4G U8G G18U A23G C29U G67A C75U cannot be ordered by nonsense suppression: ≤ 0.026 for the first, ≤ 0.026 for the second.

U4G U16A C56G U58C and U4G U16C U35G A62U C72A cannot be ordered by nonsense suppression: ≤ 0.026 for the first, ≤ 0.026 for the second.

Compared with U4G U17A G19U G84A, U4G U17C is higher in nonsense suppression: ≤ 0.026 for the first, 0.45 for the second.

U4G U17G U63G and U4G U20A G26C G67U cannot be ordered by nonsense suppression: ≤ 0.026 for the first, ≤ 0.026 for the second.

Going from U4G U20C A33G to U4G U20G, the nonsense suppression rises from 0.0309 to 0.834.

Compared with U4G U20G U22A, U4G U21A A23C G25U C29A A31G U55A U63C is lower in nonsense suppression: 0.21 for the first, ≤ 0.026 for the second.

U4G U21C G65A and U4G U21G G78A G84A cannot be ordered by nonsense suppression: ≤ 0.026 for the first, ≤ 0.026 for the second.

First: U4G U22G
Second: U4G U22G U57A
The nonsense suppression of the first is higher: 0.492 for the first, ≤ 0.026 for the second.

U4G U35A G66A C83U A89C and U4G U35G cannot be ordered by nonsense suppression: ≤ 0.026 for the first, ≤ 0.026 for the second.

U4G U35G C80A and U4G U57G C80G cannot be ordered by nonsense suppression: ≤ 0.026 for the first, ≤ 0.026 for the second.

U4G U63A G65C and U4G U63C C64A cannot be ordered by nonsense suppression: ≤ 0.026 for the first, ≤ 0.026 for the second.

U4G U63C C82A and U4G U76G G84U cannot be ordered by nonsense suppression: ≤ 0.026 for the first, ≤ 0.026 for the second.

C5A A9C G18C U21C G26A G59C and C5A A9G cannot be ordered by nonsense suppression: ≤ 0.026 for the first, ≤ 0.026 for the second.

C5A A9U G66C and C5A A9U U70G A89C cannot be ordered by nonsense suppression: ≤ 0.026 for the first, ≤ 0.026 for the second.

C5A A13C A33U U55G C72U and C5A A14C G86A cannot be ordered by nonsense suppression: ≤ 0.026 for the first, ≤ 0.026 for the second.

C5A A14G and C5A A14G A30G G85A cannot be ordered by nonsense suppression: ≤ 0.026 for the first, ≤ 0.026 for the second.

C5A A14G G32U and C5A A14U cannot be ordered by nonsense suppression: ≤ 0.026 for the first, ≤ 0.026 for the second.

C5A A14U A23C and C5A A14U G88U cannot be ordered by nonsense suppression: ≤ 0.026 for the first, ≤ 0.026 for the second.

C5A A23C A31G G61A and C5A A23C C27G G61U cannot be ordered by nonsense suppression: ≤ 0.026 for the first, ≤ 0.026 for the second.

C5A A23C C27G U63G C82U G84A and C5A A23C G26U C56G U57G G67C cannot be ordered by nonsense suppression: ≤ 0.026 for the first, ≤ 0.026 for the second.

C5A A23U A24C G28A and C5A A24G C83G cannot be ordered by nonsense suppression: ≤ 0.026 for the first, ≤ 0.026 for the second.

Compared with C5A A24U G66A, C5A A30G is higher in nonsense suppression: ≤ 0.026 for the first, 0.0272 for the second.

C5A A30G C34G U70C and C5A A30G C68G U70A C77A A87G cannot be ordered by nonsense suppression: ≤ 0.026 for the first, ≤ 0.026 for the second.

C5A A30U G59C C81U and C5A A33G G88A cannot be ordered by nonsense suppression: ≤ 0.026 for the first, ≤ 0.026 for the second.

C5A A54G C64G and C5A A60C A62U cannot be ordered by nonsense suppression: ≤ 0.026 for the first, ≤ 0.026 for the second.

C5A A60C C79A and C5A A60G U70G G86C cannot be ordered by nonsense suppression: ≤ 0.026 for the first, ≤ 0.026 for the second.

C5A A60U and C5A A62G cannot be ordered by nonsense suppression: ≤ 0.026 for the first, ≤ 0.026 for the second.

C5A A62U and C5A A62U G88U cannot be ordered by nonsense suppression: ≤ 0.026 for the first, ≤ 0.026 for the second.

C5A A87C and C5A A87G cannot be ordered by nonsense suppression: ≤ 0.026 for the first, ≤ 0.026 for the second.

C5A C11G and C5A C11G C27U G28A U70C cannot be ordered by nonsense suppression: ≤ 0.026 for the first, ≤ 0.026 for the second.

C5A C11G C80A G84C and C5A C11G G18A cannot be ordered by nonsense suppression: ≤ 0.026 for the first, ≤ 0.026 for the second.

C5A C11G G67U and C5A C11U A23U A60U cannot be ordered by nonsense suppression: ≤ 0.026 for the first, ≤ 0.026 for the second.

C5A C11U C34G and C5A C11U U57A A62U C75A cannot be ordered by nonsense suppression: ≤ 0.026 for the first, ≤ 0.026 for the second.

C5A C12G and C5A C12G U57A C81G cannot be ordered by nonsense suppression: ≤ 0.026 for the first, ≤ 0.026 for the second.

C5A C12U C34U U57C G67A and C5A C27G G73A cannot be ordered by nonsense suppression: ≤ 0.026 for the first, ≤ 0.026 for the second.

C5A C29A A30U and C5A C29G U55A G65A cannot be ordered by nonsense suppression: ≤ 0.026 for the first, ≤ 0.026 for the second.

C5A C29U A31U A62U U76A and C5A C64G C72G cannot be ordered by nonsense suppression: ≤ 0.026 for the first, ≤ 0.026 for the second.

C5A C75U C79A and C5A C79A G88A cannot be ordered by nonsense suppression: ≤ 0.026 for the first, ≤ 0.026 for the second.

C5A C80A and C5A G6A U76A cannot be ordered by nonsense suppression: ≤ 0.026 for the first, ≤ 0.026 for the second.

C5A G7A G61C G78C and C5A G7A U17A A54C U55C cannot be ordered by nonsense suppression: ≤ 0.026 for the first, ≤ 0.026 for the second.

C5A G7A U20G C80A and C5A G7C cannot be ordered by nonsense suppression: ≤ 0.026 for the first, ≤ 0.026 for the second.

C5A G7C G85U and C5A G7U cannot be ordered by nonsense suppression: ≤ 0.026 for the first, ≤ 0.026 for the second.

C5A G7U G18C U20G A23U and C5A G7U G73A cannot be ordered by nonsense suppression: ≤ 0.026 for the first, ≤ 0.026 for the second.

C5A G7U U17C and C5A G7U U20G A74U cannot be ordered by nonsense suppression: ≤ 0.026 for the first, ≤ 0.026 for the second.

C5A G10A A74C and C5A G10A C34A A62U U63A U71C cannot be ordered by nonsense suppression: ≤ 0.026 for the first, ≤ 0.026 for the second.

C5A G10C C11G C12A G15A A89G and C5A G15A G26U cannot be ordered by nonsense suppression: ≤ 0.026 for the first, ≤ 0.026 for the second.

C5A G15U A33C U70G and C5A G15U G61A C79A cannot be ordered by nonsense suppression: ≤ 0.026 for the first, ≤ 0.026 for the second.

C5A G15U G88U and C5A G18C G65U U71A cannot be ordered by nonsense suppression: ≤ 0.026 for the first, ≤ 0.026 for the second.

C5A G18C U71G G88A and C5A G18U U76C G86A cannot be ordered by nonsense suppression: ≤ 0.026 for the first, ≤ 0.026 for the second.

C5A G19A U22A G88A and C5A G19C A62G cannot be ordered by nonsense suppression: ≤ 0.026 for the first, ≤ 0.026 for the second.

C5A G19U U55G A60U and C5A G25A G73C cannot be ordered by nonsense suppression: ≤ 0.026 for the first, ≤ 0.026 for the second.

C5A G25C A54G A89U and C5A G25U cannot be ordered by nonsense suppression: ≤ 0.026 for the first, ≤ 0.026 for the second.

C5A G26C U35C and C5A G28U A62C cannot be ordered by nonsense suppression: ≤ 0.026 for the first, ≤ 0.026 for the second.

C5A G28U A62C A89C and C5A G32A C34A cannot be ordered by nonsense suppression: ≤ 0.026 for the first, ≤ 0.026 for the second.

C5A G59A C64G and C5A G61A U63C C77G cannot be ordered by nonsense suppression: ≤ 0.026 for the first, ≤ 0.026 for the second.

Compared with C5A G61C, C5A G61U C79U is lower in nonsense suppression: 0.0329 for the first, ≤ 0.026 for the second.

Going from C5A G69C G84U to C5A G78A, the nonsense suppression rises from ≤ 0.026 to 0.0335.

For C5A G78C C81A, the nonsense suppression was ≤ 0.026.
